Measurements as given in the supplement of paper PMC11876631.
± gives the standard deviation of the averaged measurements. Laboratory Escherichia coli strains with one amino-acid change in an essential protein, pooled on minimal glucose agar with carbenicillin or gentamicin at twice the control MIC (plus kanamycin and chloramphenicol for the plasmids), 48 h. Fold change of barcode share against drug-free plates; higher = less susceptible. Active = above 20 in both replicates (the paper's putatively resistant). '<' = one read or none on drug, '>' = one read or none on a drug-free plate. Shares are relative, so most strains fall below 1 when a few take over. Listed are strains with at least 15 reads on both drug-free plates, and hits; most hits rest on fewer reference reads. Replicate rank correlation about 0.5. Edits are read from barcodes.

Molecular target: Escherichia coli (laboratory strain)
Assay: barcode share on antibiotic plates over drug-free plates; higher = less susceptible
Method: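 A pool of E. coli strains, each edited to carry one amino-acid change in an essential protein, was grown for 48 h on minimal glucose agar with or without antibiotic; strain barcodes were sequenced; mean of two replicates.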

[1] = antibiotic: carbenicillin, 2× MIC (3.1 µg/mL)
[2] = antibiotic: gentamicin, 2× MIC (MIC 0.45 µg/mL)

| Protein | fold change of barcode share [1] | fold change of barcode share [2] |
| --- | --- | --- |
| plsB L347A (protein) MSGWPRIYYKLLNLPLSILVKSKSIPADPAPELGLDTSRPIMYVLPYNSKADLLTLRAQCLAHDLPDPLEPLEIDGTLLPRYVFIHGGPRVFTYYTPKEESIKLFHDYLDLHRSNPNLDVQMVPVSVMFGRAPGREKGEVNPPLRMLNGVQKFFAVLWLGRDSFVRFSPSVSLRRMADEHGTDKTIAQKLARVARMHFARQRLAAVGPRLPARQDLFNKLLASRAIAKAVEDEARSKKISHEKAQQNAIALMEEIAANFSYEMIRLTDRILGFTWNRLYQGINVHNAERVRQLAHDGHELVYVPCHRSHMDYLLLSYVLYHQGLVPPHIAAGINLNFWPAGPIFRRAGAFFIRRTFKGNKLYSTVFREYLGELFSRGYSVEYFVEGGRSRTGRLLDPKTGTLSMTIQAMLRGGTRPITLIPIYIGYEHVMEVGTYAKELRGATKEKESLPQMLRGLSKLRNLGQGYVNFGEPMPLMTYLNQHVPDWRESIDPIEAVRPAWLTPTVNNIAADLMVRINNAGAANAMNLCCTALLASRQRSLTREQLTEQLNCYLDLMRNVPYSTDSTVPSASASELIDHALQMNKFEVEKDTIGDIIILPREQAVLMTYYRNNIAHMLVLPSLMAAIVTQHRHISRDVLMEHVNVLYPMLKAELFLRWDRDELPDVIDALANEMQRQGLITLQDDELHINPAHSRTLQLLAAGARETLQRYAITFWLLSANPSINRGTLEKESRTVAQRLSVLHGINAPEFFDKAVFSSLVLTLRDEGYISDSGDAEPAETMKVYQLLAELITSDVRLTIESATQGEG | 0.291 ± 0.08 | 0.0292 ± 0.029 |
| plsB M430D (protein) MSGWPRIYYKLLNLPLSILVKSKSIPADPAPELGLDTSRPIMYVLPYNSKADLLTLRAQCLAHDLPDPLEPLEIDGTLLPRYVFIHGGPRVFTYYTPKEESIKLFHDYLDLHRSNPNLDVQMVPVSVMFGRAPGREKGEVNPPLRMLNGVQKFFAVLWLGRDSFVRFSPSVSLRRMADEHGTDKTIAQKLARVARMHFARQRLAAVGPRLPARQDLFNKLLASRAIAKAVEDEARSKKISHEKAQQNAIALMEEIAANFSYEMIRLTDRILGFTWNRLYQGINVHNAERVRQLAHDGHELVYVPCHRSHMDYLLLSYVLYHQGLVPPHIAAGINLNFWPAGPIFRRLGAFFIRRTFKGNKLYSTVFREYLGELFSRGYSVEYFVEGGRSRTGRLLDPKTGTLSMTIQAMLRGGTRPITLIPIYIGYEHVDEVGTYAKELRGATKEKESLPQMLRGLSKLRNLGQGYVNFGEPMPLMTYLNQHVPDWRESIDPIEAVRPAWLTPTVNNIAADLMVRINNAGAANAMNLCCTALLASRQRSLTREQLTEQLNCYLDLMRNVPYSTDSTVPSASASELIDHALQMNKFEVEKDTIGDIIILPREQAVLMTYYRNNIAHMLVLPSLMAAIVTQHRHISRDVLMEHVNVLYPMLKAELFLRWDRDELPDVIDALANEMQRQGLITLQDDELHINPAHSRTLQLLAAGARETLQRYAITFWLLSANPSINRGTLEKESRTVAQRLSVLHGINAPEFFDKAVFSSLVLTLRDEGYISDSGDAEPAETMKVYQLLAELITSDVRLTIESATQGEG | 0.245 ± 0.076 | < 0.00461 |
| plsB M430A (protein) MSGWPRIYYKLLNLPLSILVKSKSIPADPAPELGLDTSRPIMYVLPYNSKADLLTLRAQCLAHDLPDPLEPLEIDGTLLPRYVFIHGGPRVFTYYTPKEESIKLFHDYLDLHRSNPNLDVQMVPVSVMFGRAPGREKGEVNPPLRMLNGVQKFFAVLWLGRDSFVRFSPSVSLRRMADEHGTDKTIAQKLARVARMHFARQRLAAVGPRLPARQDLFNKLLASRAIAKAVEDEARSKKISHEKAQQNAIALMEEIAANFSYEMIRLTDRILGFTWNRLYQGINVHNAERVRQLAHDGHELVYVPCHRSHMDYLLLSYVLYHQGLVPPHIAAGINLNFWPAGPIFRRLGAFFIRRTFKGNKLYSTVFREYLGELFSRGYSVEYFVEGGRSRTGRLLDPKTGTLSMTIQAMLRGGTRPITLIPIYIGYEHVAEVGTYAKELRGATKEKESLPQMLRGLSKLRNLGQGYVNFGEPMPLMTYLNQHVPDWRESIDPIEAVRPAWLTPTVNNIAADLMVRINNAGAANAMNLCCTALLASRQRSLTREQLTEQLNCYLDLMRNVPYSTDSTVPSASASELIDHALQMNKFEVEKDTIGDIIILPREQAVLMTYYRNNIAHMLVLPSLMAAIVTQHRHISRDVLMEHVNVLYPMLKAELFLRWDRDELPDVIDALANEMQRQGLITLQDDELHINPAHSRTLQLLAAGARETLQRYAITFWLLSANPSINRGTLEKESRTVAQRLSVLHGINAPEFFDKAVFSSLVLTLRDEGYISDSGDAEPAETMKVYQLLAELITSDVRLTIESATQGEG | 0.558 ± 0.38 | 0.0113 ± 0.013 |
| plsB L347D (protein) MSGWPRIYYKLLNLPLSILVKSKSIPADPAPELGLDTSRPIMYVLPYNSKADLLTLRAQCLAHDLPDPLEPLEIDGTLLPRYVFIHGGPRVFTYYTPKEESIKLFHDYLDLHRSNPNLDVQMVPVSVMFGRAPGREKGEVNPPLRMLNGVQKFFAVLWLGRDSFVRFSPSVSLRRMADEHGTDKTIAQKLARVARMHFARQRLAAVGPRLPARQDLFNKLLASRAIAKAVEDEARSKKISHEKAQQNAIALMEEIAANFSYEMIRLTDRILGFTWNRLYQGINVHNAERVRQLAHDGHELVYVPCHRSHMDYLLLSYVLYHQGLVPPHIAAGINLNFWPAGPIFRRDGAFFIRRTFKGNKLYSTVFREYLGELFSRGYSVEYFVEGGRSRTGRLLDPKTGTLSMTIQAMLRGGTRPITLIPIYIGYEHVMEVGTYAKELRGATKEKESLPQMLRGLSKLRNLGQGYVNFGEPMPLMTYLNQHVPDWRESIDPIEAVRPAWLTPTVNNIAADLMVRINNAGAANAMNLCCTALLASRQRSLTREQLTEQLNCYLDLMRNVPYSTDSTVPSASASELIDHALQMNKFEVEKDTIGDIIILPREQAVLMTYYRNNIAHMLVLPSLMAAIVTQHRHISRDVLMEHVNVLYPMLKAELFLRWDRDELPDVIDALANEMQRQGLITLQDDELHINPAHSRTLQLLAAGARETLQRYAITFWLLSANPSINRGTLEKESRTVAQRLSVLHGINAPEFFDKAVFSSLVLTLRDEGYISDSGDAEPAETMKVYQLLAELITSDVRLTIESATQGEG | 0.712 ± 0.59 | < 0.0116 |
| plsB M430W (protein) MSGWPRIYYKLLNLPLSILVKSKSIPADPAPELGLDTSRPIMYVLPYNSKADLLTLRAQCLAHDLPDPLEPLEIDGTLLPRYVFIHGGPRVFTYYTPKEESIKLFHDYLDLHRSNPNLDVQMVPVSVMFGRAPGREKGEVNPPLRMLNGVQKFFAVLWLGRDSFVRFSPSVSLRRMADEHGTDKTIAQKLARVARMHFARQRLAAVGPRLPARQDLFNKLLASRAIAKAVEDEARSKKISHEKAQQNAIALMEEIAANFSYEMIRLTDRILGFTWNRLYQGINVHNAERVRQLAHDGHELVYVPCHRSHMDYLLLSYVLYHQGLVPPHIAAGINLNFWPAGPIFRRLGAFFIRRTFKGNKLYSTVFREYLGELFSRGYSVEYFVEGGRSRTGRLLDPKTGTLSMTIQAMLRGGTRPITLIPIYIGYEHVWEVGTYAKELRGATKEKESLPQMLRGLSKLRNLGQGYVNFGEPMPLMTYLNQHVPDWRESIDPIEAVRPAWLTPTVNNIAADLMVRINNAGAANAMNLCCTALLASRQRSLTREQLTEQLNCYLDLMRNVPYSTDSTVPSASASELIDHALQMNKFEVEKDTIGDIIILPREQAVLMTYYRNNIAHMLVLPSLMAAIVTQHRHISRDVLMEHVNVLYPMLKAELFLRWDRDELPDVIDALANEMQRQGLITLQDDELHINPAHSRTLQLLAAGARETLQRYAITFWLLSANPSINRGTLEKESRTVAQRLSVLHGINAPEFFDKAVFSSLVLTLRDEGYISDSGDAEPAETMKVYQLLAELITSDVRLTIESATQGEG | 1.22 ± 0.42 | < 0.0103 |
| plsB M430Q (protein) MSGWPRIYYKLLNLPLSILVKSKSIPADPAPELGLDTSRPIMYVLPYNSKADLLTLRAQCLAHDLPDPLEPLEIDGTLLPRYVFIHGGPRVFTYYTPKEESIKLFHDYLDLHRSNPNLDVQMVPVSVMFGRAPGREKGEVNPPLRMLNGVQKFFAVLWLGRDSFVRFSPSVSLRRMADEHGTDKTIAQKLARVARMHFARQRLAAVGPRLPARQDLFNKLLASRAIAKAVEDEARSKKISHEKAQQNAIALMEEIAANFSYEMIRLTDRILGFTWNRLYQGINVHNAERVRQLAHDGHELVYVPCHRSHMDYLLLSYVLYHQGLVPPHIAAGINLNFWPAGPIFRRLGAFFIRRTFKGNKLYSTVFREYLGELFSRGYSVEYFVEGGRSRTGRLLDPKTGTLSMTIQAMLRGGTRPITLIPIYIGYEHVQEVGTYAKELRGATKEKESLPQMLRGLSKLRNLGQGYVNFGEPMPLMTYLNQHVPDWRESIDPIEAVRPAWLTPTVNNIAADLMVRINNAGAANAMNLCCTALLASRQRSLTREQLTEQLNCYLDLMRNVPYSTDSTVPSASASELIDHALQMNKFEVEKDTIGDIIILPREQAVLMTYYRNNIAHMLVLPSLMAAIVTQHRHISRDVLMEHVNVLYPMLKAELFLRWDRDELPDVIDALANEMQRQGLITLQDDELHINPAHSRTLQLLAAGARETLQRYAITFWLLSANPSINRGTLEKESRTVAQRLSVLHGINAPEFFDKAVFSSLVLTLRDEGYISDSGDAEPAETMKVYQLLAELITSDVRLTIESATQGEG | 0.589 ± 0.15 | 0.0198 ± 0.022 |
| pdxH V183A (protein) MSDNDELQQIAHLRREYTKGGLRRRDLPADPLTLFERWLSQACEAKLADPTAMVVATVDEHGQPYQRIVLLKHYDEKGMVFYTNLGSRKAHQIENNPRVSLLFPWHTLERQVMVIGKAERLSTLEVMKYFHSRPRDSQIGAWVSKQSSRISARGILESKFLELKQKFQQGEVPLPSFWGGFRASLEQIEFWQGGEHRLHDRFLYQRENDAWKIDRLAP | 0.339 ± 0.035 | 0.017 ± 0.012 |
| pdxH V183Q (protein) MSDNDELQQIAHLRREYTKGGLRRRDLPADPLTLFERWLSQACEAKLADPTAMVVATVDEHGQPYQRIVLLKHYDEKGMVFYTNLGSRKAHQIENNPRVSLLFPWHTLERQVMVIGKAERLSTLEVMKYFHSRPRDSQIGAWVSKQSSRISARGILESKFLELKQKFQQGEVPLPSFWGGFRQSLEQIEFWQGGEHRLHDRFLYQRENDAWKIDRLAP | 0.233 ± 0.062 | 0.0211 ± 0.0022 |
